Drawing on the antibiotic and cytotoxicity screens of Wong et al. (2023), this text covers cytotoxicity call and growth inhibition call for 30 compounds.

The test system of one experiment is HSkMC. Put plainly: cytotoxicity call (relative viability < 0.9). The following applies: 10 µM.
A further experiment has as its system HepG2. Description: cytotoxicity call (relative viability < 0.9). The following applies: 10 µM.
The test system of the next experiment is S. aureus RN4220. Put plainly: growth inhibition call (relative growth <= 0.2). The following applies: 50 µM.

The list shows a part of the results.

As for `C[C@@H]1CN([C@@H](C)CO)C(=O)c2cc(NC(=O)Nc3ccc4c(c3)OCO4)ccc2O[C@H]1CN(C)Cc1ccc(C(F)(F)F)cc1`, in the experiment with HSkMC, the cytotoxicity call is “active”. Besides, the cytotoxicity call in the experiment with HepG2 was “inactive”. In addition, in the experiment with S. aureus RN4220, the growth inhibition call is “inactive”.
Turning to `S=C(SN1CCOCC1)N1CCOCC1`, the cytotoxicity call in the experiment on HSkMC and in the experiment with HepG2 was “inactive” throughout. Further, in the experiment with S. aureus RN4220, the growth inhibition call was “inactive”.
`CC[C@@H](N)CC12CC3CC(CC(C3)C1)C2`: the cytotoxicity call with HSkMC and in the experiment with HepG2 was “inactive” throughout. Also, in the experiment with S. aureus RN4220, the growth inhibition call is “inactive”.
In the case of `Cc1noc(C)c1S(=O)(=O)N(C)C[C@H]1OCCCC[C@H](C)Oc2ccc(NC(=O)Nc3ccc(F)cc3)cc2C(=O)N([C@H](C)CO)C[C@@H]1C`, the cytotoxicity call with HSkMC and in the experiment with HepG2 was “inactive” in each case. The growth inhibition call in the experiment on S. aureus RN4220 is “inactive”.
Consider `C[C@H](CO)N1C[C@H](C)[C@@H](CN(C)C(=O)Nc2ccc(F)cc2)Oc2ccc(NC(=O)C3CC3)cc2CC1=O`, for which the cytotoxicity call with HSkMC and in the experiment on HepG2 was “inactive” each time. For the same compound, in the experiment with S. aureus RN4220, the growth inhibition call was “inactive”.
Consider `COc1ccc(CN(C)C[C@H]2OCCCC[C@H](C)Oc3ccc(NC(=O)Nc4c(C)noc4C)cc3C(=O)N([C@@H](C)CO)C[C@H]2C)cc1`, for which the cytotoxicity call in the experiment with HSkMC and with HepG2 was “inactive” each time. Besides, the growth inhibition call with S. aureus RN4220 is “inactive”.
`C[C@H]1CN([C@@H](C)CO)C(=O)c2cccc(NC(=O)c3cnccn3)c2O[C@H]1CN(C)Cc1ccccc1`: the cytotoxicity call in the experiment on HSkMC and in the experiment on HepG2 was “inactive” throughout. In the experiment with S. aureus RN4220, the growth inhibition call was “inactive”.
Take `C[C@@H]1NC(=O)[C@@H]2CCCN2C(=O)[C@H](CC(N)=O)NC(=O)[C@@H]2CSSC[C@H](N)C(=O)N[C@H]3CSSC[C@H](NC1=O)C(=O)N[C@@H]([C@@H](C)O)C(=O)NCC(=O)N[C@H](C(=O)N[C@@H](Cc1ccc(O)cc1)C(=O)O)CSSC[C@H](NC(=O)[C@H](Cc1ccc(O)cc1)NC(=O)[C@H](CCC(=O)O)NC3=O)C(=O)N2`: the cytotoxicity call in the experiment on HSkMC and in the experiment with HepG2 was “inactive” each time. Besides, the growth inhibition call in the experiment with S. aureus RN4220 was “inactive”.
As to `Cc1ccc2[nH]c(=O)c(C3=NN(C(=O)CCC(=O)O)[C@H](c4ccc(Br)cc4)C3)c(-c3ccccc3)c2c1`, the cytotoxicity call in the experiment with HSkMC and in the experiment with HepG2 was “inactive” each time. In addition, the growth inhibition call with S. aureus RN4220 was “inactive”.
Regarding `O=c1n(-c2ccccc2)c(=O)n2n1CC(COc1ccccc1)=C1[C@@H](CCc3ccccc3)OB(O)C[C@@H]12`, the cytotoxicity call with HSkMC and in the experiment with HepG2 was “inactive” each time. Moreover, the growth inhibition call with S. aureus RN4220 is “inactive”.
On to `Cc1noc(C)c1S(=O)(=O)Nc1cccc2c1O[C@@H](CN(C)Cc1ccc3c(c1)OCO3)[C@@H](C)CN([C@H](C)CO)C2=O`, for which the cytotoxicity call with HSkMC and in the experiment with HepG2 was “inactive” throughout. Besides, the growth inhibition call in the experiment with S. aureus RN4220 is “inactive”.
In the case of `C[C@H](CO)N1C[C@H](C)[C@H](CN(C)S(=O)(=O)c2cccc(F)c2)Oc2ncc(C#CC3CC3)cc2C1=O`, the cytotoxicity call in the experiment on HSkMC and with HepG2 was “inactive” throughout. In addition, the growth inhibition call in the experiment on S. aureus RN4220 is “inactive”.
As for `C[C@@H]1CCCCO[C@@H](CN(C)C(=O)c2ccccc2)[C@@H](C)CN([C@H](C)CO)C(=O)c2cc(NC(=O)Nc3ccc(F)cc3)ccc2O1`, the cytotoxicity call in the experiment with HSkMC and with HepG2 was “inactive” in each case. Further, the growth inhibition call in the experiment with S. aureus RN4220 is “inactive”.
Consider `C[C@@H]1CN([C@H](C)CO)C(=O)c2ccccc2-c2ccccc2CO[C@@H]1CN(C)C(=O)Nc1cccc(C(F)(F)F)c1`, for which the cytotoxicity call with HSkMC and in the experiment on HepG2 was “inactive” throughout. Besides, in the experiment on S. aureus RN4220, the growth inhibition call is “inactive”.
Turning to `C[C@@H]1CN([C@H](C)CO)C(=O)c2cccc(NS(=O)(=O)c3ccc(Cl)cc3)c2O[C@@H]1CN(C)C(=O)Nc1cccc2ccccc12`, the cytotoxicity call with HSkMC and in the experiment with HepG2 was “inactive” in each case. For the same compound, the growth inhibition call in the experiment on S. aureus RN4220 is “inactive”.
In the case of `Cc1c(C(N)=O)cc([N+](=O)[O-])cc1[N+](=O)[O-]`, the cytotoxicity call in the experiment on HSkMC and in the experiment on HepG2 was “inactive” throughout. Also, the growth inhibition call with S. aureus RN4220 is “inactive”.
Turning to `C[C@H](CO)N1C[C@H](C)[C@H](CN(C)Cc2ccc(C(F)(F)F)cc2)OCCCC[C@H](C)Oc2ccc(NS(=O)(=O)c3ccc(Cl)cc3)cc2C1=O`, the cytotoxicity call in the experiment with HSkMC and in the experiment on HepG2 was “active” each time. In addition, the growth inhibition call in the experiment on S. aureus RN4220 is “inactive”.
As to `C[C@H]1C(=O)C(=O)[C@@H]2O[C@@H]2C1=O`, the cytotoxicity call with HSkMC and in the experiment on HepG2 was “inactive” in each case. In the experiment with S. aureus RN4220, the growth inhibition call was “inactive”.
As for `C[C@@H]1CN([C@@H](C)CO)C(=O)c2cccc(NC(=O)c3ccncc3)c2O[C@@H]1CN(C)S(=O)(=O)c1cn(C)cn1`, the cytotoxicity call in the experiment with HSkMC and in the experiment on HepG2 was “inactive” throughout. Moreover, in the experiment with S. aureus RN4220, the growth inhibition call was “inactive”.
Turning to `COc1ccc2c3c(n(c2c1)C)[C@H](CO)N(C[C@]13CCN(CC1)C(=O)c1ccccc1F)C(=O)Nc1ccccc1F`, the cytotoxicity call in the experiment with HSkMC and in the experiment with HepG2 was “inactive” throughout. In addition, in the experiment on S. aureus RN4220, the growth inhibition call is “inactive”.
For `C[C@H]1CN([C@@H](C)CO)C(=O)c2cc(NS(=O)(=O)c3cn(C)cn3)ccc2O[C@H]1CN(C)S(=O)(=O)c1cn(C)cn1`, the cytotoxicity call in the experiment on HSkMC and with HepG2 was “inactive” throughout. Further, the growth inhibition call with S. aureus RN4220 was “inactive”.
`C[C@@H]1CN([C@@H](C)CO)C(=O)CCCn2cc(nn2)CO[C@H]1CN(C)C(=O)c1ccc(N2CCN(C)CC2)cc1`: the cytotoxicity call in the experiment on HSkMC and with HepG2 was “inactive” each time. Also, the growth inhibition call in the experiment on S. aureus RN4220 was “inactive”.
As to `C[C@H](CO)N1C[C@H](C)[C@H](CN(C)S(=O)(=O)c2ccc(Oc3ccccc3)nc2)OCc2cn(nn2)CCCC1=O`, the cytotoxicity call with HSkMC and in the experiment on HepG2 was “inactive” throughout. Further, in the experiment with S. aureus RN4220, the growth inhibition call is “inactive”.
In the case of `C[C@@H]1CCCCO[C@H](CN(C)C(=O)CCCN(C)C)[C@H](C)CN([C@@H](C)CO)C(=O)c2cc(NC(=O)Nc3cccc4ccccc34)ccc2O1`, the cytotoxicity call in the experiment with HSkMC and in the experiment on HepG2 was “inactive” throughout. Also, the growth inhibition call in the experiment on S. aureus RN4220 is “inactive”.
As to `C[C@H]1CN([C@@H](C)CO)C(=O)Cc2cc(NC(=O)C3CC3)ccc2O[C@@H]1CN(C)C(=O)Nc1ccccc1`, the cytotoxicity call in the experiment with HSkMC and in the experiment on HepG2 was “inactive” in each case. The growth inhibition call in the experiment with S. aureus RN4220 is “inactive”.
In the case of `C=C[C@@]1(C)CC(=O)[C@]2(O)[C@@]3(C)[C@@H](O)CCC(C)(C)[C@@H]3[C@H](O)[C@H](OC(C)=O)[C@@]2(C)O1`, the cytotoxicity call in the experiment with HSkMC and in the experiment on HepG2 was “inactive” in each case. For the same compound, the growth inhibition call in the experiment with S. aureus RN4220 is “inactive”.
Regarding `C[C@H](CO)N1C[C@H](C)[C@H](CN(C)Cc2ccc(Oc3ccccc3)cc2)Oc2ccc(NC(=O)C3CC3)cc2C1=O`, the cytotoxicity call in the experiment on HSkMC and in the experiment on HepG2 was “inactive” throughout. The growth inhibition call in the experiment on S. aureus RN4220 is “inactive”.
On to `C[C@H](CO)N1C[C@H](C)[C@@H](CN(C)S(=O)(=O)c2cn(C)cn2)Oc2c(NC(=O)CCCCCC(=O)Nc3ccccc3N)cccc2C1=O`, for which the cytotoxicity call in the experiment on HSkMC (human skeletal muscle cells) and in the experiment on HepG2 was “inactive” each time. The growth inhibition call in the experiment with S. aureus RN4220 is “inactive”.
`C[C@@H]1CCCCO[C@H](CN(C)C(=O)Nc2ccc(C(F)(F)F)cc2)[C@H](C)CN([C@@H](C)CO)C(=O)c2cc(NC(=O)Nc3cccc4ccccc34)ccc2O1`: the cytotoxicity call with HSkMC and in the experiment on HepG2 was “inactive” throughout. In addition, the growth inhibition call with S. aureus RN4220 was “inactive”.
On to `C[C@H]1CCCCO[C@@H](CN(C)C(=O)CCCN(C)C)[C@@H](C)CN([C@@H](C)CO)C(=O)c2cc(NC(=O)Nc3ccc(F)cc3)ccc2O1`, for which the cytotoxicity call with HSkMC and with HepG2 was “inactive” throughout. In the experiment on S. aureus RN4220, the growth inhibition call was “inactive”.
